From patent publication US20220023399A1, “BLOOD COMPONENT POTENTIATION OF LYTIC PROTEIN ANTI-BACTERIAL ACTIVITY AND METHODS AND USES THEREOF” (priority 2017, published 2022)

System: S. aureus strain MW2
Test: Lytic assay (loss of optical density) and specific activity
Details: CF-301 4 μg/mL in phosphate buffer
Protocol: The effect of HuLYZ and HSA on PlySs2 (CF-301) activity was examined using additional formats. First, the time-kill assay was used to combine a sub-MIC amount of PlySs2 (CF-301) with a range of HuLYZ concentrations from 1-35 μg/mL (FIG. 8A). While HuLYZ alone has no anti-staphylococcal activity (21), the concentration in human blood is reported to vary between 1 and 35 μg/mL (22). At HuLYZ concentrations above 5 μg/mL a synergistic interaction was detected based on ≥2-log 10 CFU/mL reductions at 24 hours for the combinations compared to PlySs2 (CF-301) alone. In a second in vitro assay based on loss of optical density in a treated culture, the addition of both HuLYZ (FIG. 8B) and HSA (FIG. 8C) across a range of concentrations stimulated high-level PlySs2 (CF-301) activity. […] The lytic assay also serves as the basis for determining PlySs2 (CF-301) specific activity (4). […] If HuLYZ and HSA are added together, the fold increase in PlySs2 (CF-301) activity is 25%.
• Assay performed using a fixed concentration of CF-301 (4 μg/mL) in phosphate buffer, with the indicated supplements, against S. aureus strain MW2.
Lytic assays. Overnight cultures of MRSA strain MW2 were diluted 1:100 in BHI and grown for 2.5 hours at 37° C. with aeration. The exponential phase cells were washed, concentrated 10-fold in 20 mM phosphate buffer (pH 7.4), and split in equal aliquots to which either HSA (Albumin Biosciences) or human neutrophil-derived lysozyme (AVIVA Bioscience) over a range of concentrations was added. For each concentration of HSA or lysozyme, 0.1 mL of the mixture was aliquoted in duplicate to a 96-well, flat-bottom, non-tissue culture treated microtiter plates (BD). The lytic reaction was then started by adding to all wells 0.1 mL PlySs2 (CF-301) (in phosphate) to a final concentration of 4 μg/mL. Control wells were included with PlySs2 (CF-301), HSA, or HuLYZ alone at appropriate concentrations. Samples were mixed and optical density at 600 nm (OD600) was followed for 15 minutes at room temperature in a SpectraMax M5 Microplate Reader (Molecular Devices).
A variation of the lytic assay was performed to determine PlySs2 (CF-301) specific activity. Exponential phase MW2 cells were prepared as above and divided in 4 mL aliquots containing either phosphate buffer (reactions without agents added, with cells alone) or HSA (Albumin Biosciences) and/or human lysozyme (AVIVA Bioscience). The PlySs2 (CF-301) (starting at 0.5 mg/mL) was 2-fold serially diluted across columns 1 through 11 of a 96 well plate with 20 mM Phosphate pH 7.4 at a volume of 0.1 mL. Column 12 contained no enzyme, only buffer, and was used as assay control well. Bacterial cells mixed with either buffer, HSA, lysozyme or HSA combined with HuLYZ were added as 0.1 mL aliquots to each well of three rows of serially diluted PlySs2 (CF-301). Each plate was read at 600 nm for 15 minutes (shaking for 3 seconds between reads) at room temperature using a microplate reader as above. The specific activity in Units/mg of PlySs2 (CF-301) was determined based on the PlySs2 (CF-301) dilutions displaying curves just above and below the optical density that is 50% of the buffer control at 15 minutes.

B1: PlySs2 (CF-301): antistaphylococcal lysin from a Streptococcus suis prophage; N-terminal CHAP domain, C-terminal SH3-type binding domain; SEQ ID NO:3 (protein, listed as Streptococcus suis)
chain: MTTVNEALNNVRAQVGSGVSVGNGECYALASWYERMISPDATVGLGAGVGWVSGAIGDTISAKNIGSSYNWQANGWTVSTSGPFKAGQIVTLGATPGNPYGHVVIVEAVDGDRLTILEQNYGGKRYPVRNYYSAASYRQQVVHYITPPGTVAQSAPNLAGSRSYRETGTMTVTVDALNVRRAPNTSGEIVAVYKRGESFDYDTVIIDVNGYVWVSYIGGSGKRNYVATGATKDGKRFGNAWGTFK
- Specific Activity (supplement HuLYZ, 10 μg/mL): 32066 Units/mg
- Specific Activity (supplement rHSA, 4%): 43067 Units/mg
- Specific Activity (supplements rHSA, HuLYZ): 18711 Units/mg
- Specific Activity (supplements: None): ~2500 Units/mg
- Specific Activity (supplements: None, listed as CF-301): 2419 Units/mg
